Reference: the supplement of paper PMC12217912
Some of the results follow. The full chains were built here from the parent and the listed change. Values near 0.05 are background.

B1: TEV protease; numbered along this chain (parent)
chain: MGESLFKGPRDYNPISSSICHLTNESDGHTTSLYGIGFGPFIITNKHLFRRNNGTLVVQSLHGVFKVKDTTTLQQHLVDGRDMIIIRMPKDFPPFPQKLKFREPQREERICLVTTNFQTKSMSSMVSDTSCTFPSGDGIFWKHWIQTKDGQCGSPLVSTRDGFIVGIHSASNFTNTNNYFTSVPKNFMELLTNQEAQQWVSGWRLNADSVLWGGHKVFMVKPEEPFQPVKEATQL

Variants of: B1
Assay: raw area under fraction-flipped curve 0-4 h after induction (AUC4h, not background-subtracted), DNA-recorder readout of cleavage of the substrate (dimensionless); higher = more cleavage of the substrate by the protease variant
Conditions: temperature: 34 °C; time window: 0-4 h after rhamnose induction
Description: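 In vivo DNA recorder in E. coli TOP10(DE3) ΔrhaA at 34 °C. Each TEVp single-site mutant (parent TEVp 0) is paired with a single-site variant of the 7-mer TEVs (canonical ENLYFQ|S). The substrate sits between flexible linkers in a Bxb1-sfGFP-TEVs-SsrA fusion, so cleavage stabilises Bxb1 and speeds flipping of a recombination array, read by NGS. The value is the raw area under the fraction-flipped curve over 0-4 h after rhamnose induction (AUC4h), with ≥20 reads per time point. It is not background-subtracted; inactive controls average about 0.047.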
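Note: Bxb1 expression induced with 0.2% (w/v) L-rhamnose at OD600 near 0.5, cultures sampled hourly, flipped fraction per protease–substrate barcode pair counted by paired-end Illumina sequencing.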

Row | Variant | area with substrate ENLYFAS | area with substrate ENLYFCS | area with substrate ENLYFES | area with substrate ENLYFFS | area with substrate ENLYFHS | area with substrate ENLYFIS | area with substrate ENLYFKS | area with substrate ENLYFMS | area with substrate ENLYFNS | area with substrate ENLYFPS | area with substrate ENLYFRS | area with substrate ENLYFSS | area with substrate ENLYFTS | area with substrate ENLYFGS | area with substrate ENLYFVS | area with substrate ENLYFWS | area with substrate ENLYFDS | area with substrate ENLYFLS | area with substrate ENLYFYS
1 | T72W | 0.0553 | 0.0567 | 0.041 | 0.0804 | 0.0662 | 0.0518 | 0.0666 | 0.0681 | 0.0673 | 0.0663 | 0.0543 | 0.0539 | 0.0635 |  |  |  |  |  | 
2 | G162Q | 0.0599 | 0.0546 | 0.07 |  | 0.0457 | 0.0531 |  |  | 0.0599 | 0.0656 | 0.0525 |  | 0.0579 | 0.0755 | 0.0382 | 0.058 |  |  | 
3 | D27F | 0.0538 | 0.066 | 0.0541 | 0.0756 |  | 0.0351 |  | 0.0779 | 0.0681 |  |  |  | 0.0725 |  |  | 0.0503 | 0.0707 |  | 
4 | P134F | 0.0352 | 0.0402 | 0.0504 | 0.0708 | 0.0597 | 0.0539 | 0.081 | 0.0529 | 0.0629 |  |  |  |  |  |  | 0.0692 |  |  | 
5 | V210I | 0.0632 | 0.0553 | 0.0628 | 0.0731 |  | 0.0414 |  | 0.032 |  | 0.0579 | 0.0596 | 0.0616 |  |  |  |  |  |  | 
6 | Q105V | 0.0677 | 0.0485 | 0.0873 | 0.0724 |  | 0.0531 | 0.0576 |  | 0.0578 | 0.0677 | 0.0587 | 0.0624 | 0.0604 |  |  |  |  | 0.0391 | 0.0617
7 | V229W | 0.0637 | 0.0394 | 0.0672 | 0.0667 |  | 0.0561 | 0.0614 | 0.0719 | 0.0618 | 0.0518 | 0.0658 |  | 0.0563 | 0.0506 | 0.0511 | 0.0586 | 0.0543 | 0.0687 | 0.0688
8 | N177F | 0.0541 |  |  | 0.0661 | 0.0581 | 0.0545 |  | 0.0559 |  |  | 0.0605 |  | 0.0459 | 0.0647 | 0.006 | 0.0677 | 0.0626 | 0.0533 | 0.0631
9 | D91G | 0.0626 |  | 0.0768 | 0.0734 |  | 0.0436 | 0.0608 | 0.0782 | 0.0533 | 0.0134 | 0.0617 | 0.0619 | 0.0414 |  |  | 0.0653 |  |  | 
10 | D91Y | 0.0504 | 0.0623 |  | 0.0571 | 0.0637 | 0.0733 | 0.0445 |  |  |  |  |  |  |  |  |  |  | 0.0606 | 
11 | N206V | 0.067 | 0.0567 | 0.0676 | 0.0498 | 0.0598 | 0.0651 |  | 0.0539 | 0.0573 |  |  | 0.0551 | 0.0572 |  |  | 0.0464 | 0.0607 | 0.0491 | 
12 | S60N | 0.0613 | 0.0023 | 0.0678 | 0.0752 | 0.0697 | 0.0588 |  | 0.0606 | 0.0584 | 0.0589 |  | 0.0703 | 0.0474 |  |  |  | 0.0709 | 0.0557 | 
13 | V165K | 0.0568 | 0.0578 | 0.0637 | 0.0543 | 0.0527 | 0.048 |  | 0.0587 | 0.0733 | 0.0576 | 0.0561 | 0.0421 |  |  | 0.0856 |  |  | 0.0593 | 
14 | E223P | 0.0576 | 0.062 | 0.0536 |  |  |  | 0.0587 | 0.0649 | 0.061 | 0.0577 | 0.0663 | 0.04 | 0.0627 |  |  | 0.0503 | 0.0623 | 0.0541 | 
15 | Q146G | 0.0605 | 0.0462 |  | 0.0599 |  | 0.0556 | 0.0759 | 0.0628 | 0.0596 | 0.0605 | 0.0684 | 0.0606 |  | 0.0691 | 0.056 |  | 0.0683 |  | 0.0642
16 | Q146E | 0.0699 | 0.063 | 0.082 |  | 0.0664 | 0.0496 |  | 0.069 | 0.0749 | 0.0645 |  | 0.0504 | 0.0717 |  | 0.0725 | 0.0467 |  |  | 
17 | K185Y | 0.0473 | 0.0623 | 0.062 | 0.0815 | 0.0619 | 0.0461 | 0.0525 | 0.0607 |  | 0.0792 | 0.0704 | 0.0546 | 0.0668 | 0.0779 |  | 0.0483 | 0.0339 | 0.0491 | 0.0508
18 | K185D | 0.0611 | 0.0489 |  |  | 0.0703 | 0.0569 |  |  |  |  | 0.0641 |  | 0.0816 |  | 0.0531 |  |  |  | 
19 | S182D | 0.0651 | 0.0638 | 0.0566 | 0.062 |  |  |  | 0.0623 | 0.0589 | 0.0592 |  |  | 0.0364 | 0.0499 |  | 0.0582 |  |  | 
20 | N172D | 0.0814 | 0.0705 | 0.0659 | 0.0681 |  | 0.0568 | 0.0464 | 0.0656 | 0.0541 |  |  |  | 0.0597 | 0.065 | 0.0522 | 0.0636 |  |  | 
21 | F41Y | 0.0513 | 0.0635 | 0.0667 | 0.0719 | 0.0455 | 0.0559 | 0.0648 | 0.0665 | 0.0665 | 0.0633 | 0.064 | 0.0508 | 0.0605 | 0.0506 | 0.0608 | 0.0652 | 0.0412 | 0.0781 | 0.0655
22 | S169H | 0.055 | 0.0534 | 0.0562 | 0.0778 |  | 0.059 |  | 0.0545 | 0.0571 | 0.0525 |  | 0.0661 |  |  |  |  |  |  | 0.0568
23 | R102F | 0.0356 | 0.0323 | 0.0343 |  | 0.0343 | 0.0367 |  |  | 0.0453 | 0.0645 |  | 0.0308 | 0.0405 |  |  |  |  | 0.0498 | 
24 | A196P | 0.0599 |  | 0.0535 | 0.0931 | 0.0488 | 0.0518 |  | 0.0282 |  |  | 0.0712 |  | 0.0577 |  | 0.0724 |  |  |  | 
25 | K216E | 0.064 | 0.0652 | 0.0705 |  |  | 0.0511 |  |  | 0.0819 |  |  |  |  |  |  | 0.0369 |  | 0.076 | 0.0368
26 | L211E | 0.0637 |  |  |  |  | 0.0656 | 0.101 | 0.0656 |  | 0.0588 | 0.0651 | 0.0519 | 0.0278 |  | 0.0778 | 0.061 | 0.0618 |  | 
27 | Q194D | 0.0553 | 0.0622 | 0.0768 | 0.0609 | 0.0706 | 0.0539 | 0.0525 | 0.0635 | 0.0607 | 0.062 | 0.0646 | 0.0565 | 0.0625 |  | 0.0574 | 0.055 | 0.0718 | 0.077 | 0.0538
28 | G2W | 0.0573 | 0.0521 |  |  |  |  |  | 0.0783 | 0.0415 | 0.0601 | 0.0519 |  |  |  |  |  | 0.0528 |  | 
29 | D161N | 0.0586 |  | 0.0571 | 0.0699 | 0.0424 | 0.0633 | 0.0536 | 0.0553 |  | 0.0574 | 0.0292 |  |  | 0.0603 |  | 0.0555 |  | 0.044 | 0.0562
